Read counts are not given, so values of variants with three or more changes are uncertain.
B1: LINE1-full (parent)
chain: UACGUAGGUGGUUUUCCCCUGAUAGUGCUAAGGGGGCCUGGAAGUUUGGACUGGGCAGAGCUCAACACAGCGUGGCAAAGUGGCUGUGGCUAGACUGCCUCUCUGGAUUCCUCGUCACUCAGCAGGGCAUCUCUGAGAGAAAUGCC

Variants of: B1
Experiment: self-cleavage, relative activity (ratio to wild type); higher = more cleavage; in vitro, sequencing; the parent is a self-cleaving ribozyme
With UACGUAGGUGGUUUUCCCCUGAUAGUGCUAAGGGAGCCUGGAGGUCUGGACUGGCCAGAGCUCAACGCAGCGCGGCAAAGUGGCUGUGGCUAGACUGCCUCUCUGGAUUCCUCGUCACACAGCAGGGCAUCUCUGAGAGAAAUGCC [G35A A43G U46C G55C A67G U73C U119A] the self-cleavage was 0. Variant UACGUAGGUGGUUUUCCCCUGAUAGUGCUAAGGGAGCCUGGAAGUUUGGACUGGGCAGAGCCCAACACGGCGUGGCAAAGUGGCUGUGGCUAGACUGCCUCUCUGGAUUCCUCGUCACUCAGCAGGGCAUCUCUGAGAGAAAUGCC [G35A U62C A69G] has a self-cleavage of 0.03. For UACGUAGGUGGUUUUCCCCUGAUAGUGCUAAGGGAGCCUGGAAGUUUGGACUGGGCAGAGCCCAACACUGCGUGGCAAAGUGGCUGUGGCUAGACUGCCUCUCUGGAUUCCUCGUCACUCAGCAGGGCAUCUCUGAGAGAAAUGCC [G35A U62C A69U], the self-cleavage was 0.03. Variant UACGUAGGUGGUUUUCCCCUGAUAGUGCUAAGGGUGCCUGGGAGUUUGGACUGGGCGGAGCUCAACACAACGUGGCAAAGUGGCUGUGGCUAGGCUGCCUCUCUGGAUUCCUCGUCACUCAGCAGGGCAUCUCUGAGAGAAAUGCC [G35U A42G A57G G70A A94G] has a self-cleavage of 0.09. UACGUAGGUGGUUUUCCCCUGAUAGUGCUAAGGGAGCCUGGAAGUUUGGACUGGGCAGAGCACGACACAGCGUGGCAAAGUGGCUGUGGCUAGACUGCCUCUCUGGAUUCCUCGUCACUCAGCAGGGCAUCUCUGAGAGAAAUGCC [G35A U62A A64G] gave a self-cleavage of 0.02. Work on UACGUAGGUGGUUUUCCCCUGAUAGUGCUAAGGGAGCCUGGAAGUCUGGACUGGGCAGAGCUCAACACAGCGUGGCAAAGUGGCUGUGGCUAGACUGCCUCUCUGGAUUCCUCGUCACUCGGCAGGGCAUCUCUGAGAGAAAUGCC [G35A U46C A121G] yielded a self-cleavage of 1.64. In the case of UACGUAGGUGGUUUUCCCCUGAUAGUGCUAAGGGAGCCUGGAAGUUUGGACUGGGUAGAGCUCAACACAGCGUGGCAAAGUGGCUGUGGCUAGACUGCCUCUCUGGAUUCCUCGUCACACAGCAGGGCAUCUCUGAGAGAAAUGCC [G35A C56U U119A], the self-cleavage is reported as 0.16. In the case of UACGUAGGUGGUUUUCCCCUGAUAGUGCUAAGGGAGCCUGGAAGUUUGGACUGGGCAGAGCUCAACGCAGCUUGGCAAAGUGGCUGUGGCUAGACUGCCUCUCUGGAUUCCUCGUCACUCAGCAGGGCACCUCUGUGAGAAAUGCC [G35A A67G G72U U130C A136U], the self-cleavage is reported as 0.32. UACGUAGGUGGUUUUCCCCUGAUAGUGCUAAGGGCGCCUGGAAGUUUGGACUGGGCAGAGCUCUACACAGCGUGGCAAAGUGGCUGUGGCUAGACUGCCUCUCUGGAUUCCCCGUCACUCAGCAGGGCAUCUCUGAGAGAGAUGCC [G35C A64U U112C A141G] showed a self-cleavage of 0.51. For UACGUAGGUGGUUUUCCCCUGAUAGUGCUAAGGGAGCCUGGAAGUUUGGACUGGGCAGAGCUCAACACAGCGUGGCAAAGUGGCAGUGGCUAGACUGCCUCCCUGGAUUCCUCGUCACUCAGCAGGGCAUCUCUGAGAGAAAUGCC [G35A U85A U102C], the self-cleavage was 0.1. UACGUAGGUGGUUUUCCCCUGAUAGUGCUAAGGGAGCCCGGAGGUUUGGACUGGGCAGAGCUCAACACAGCGUGGCAAAGUGGCUGUGGCUAGACUGCCUCUCUGGAUUCCUCGUCACUCAGCAGGGCAUCUCUGAGAGAAAUGCC [G35A U39C A43G] showed a self-cleavage of 1.33. For UACGUAGGUGGUUUUCCCCUGAUAGUGCUAAGGGAGCCUGGAAGUUUGGACUGGGCAGAGCUCAACACAGCGUGGCAAAGUGGCUGUGGCUAGACUGCCUCUCUGGAUUCCUCGUCGCUCGGCAGGGCAUCUCUGAGAGAAAUGCC [G35A A117G A121G], the self-cleavage was 2.01. Variant UACGUAGGUGGUUUUCCCCUGAUAGUGCUAAGGGAGCCUGGAAGUUUGGACUGGGCAGAGCUCAACACAGCGUGGCAAAGUGGCUGUGGCUAGACUGCCUCUCUGGAUUCCUCGUCACUCAGCGGGGCUUCUCUGAGAGAAAUGCC [G35A A124G A129U] has a self-cleavage of 0.98. UACGUAGGUGGUUUUCCCCUGAUAGUGCUAAGGGAGCCUGGAGGUUUGGACUGGACAGAGCUCAACACAGCGUGGCAAAGUGGUUGUGGCUAGACUGCCUCUCAGGAUUCCUCGUCACUCAGCAGGGCAUCUCUGAGAGAAAUGCC [G35A A43G G55A C84U U104A] showed a self-cleavage of 0.02. With UACGUAGGUGGUUUUCCCCUGAUAGUGCUAAGGGAGCCUGGAAGUUUGGACUGGGCAGAGCUCAACACAGCGUGGCAAAGUGGCUGUGGUUAGACUGCCUCCCUGGAUUCCUCGUCACUCAGCAGGGCAUCCCUGAGAGAAGUGCC [G35A C90U U102C U132C A142G] the self-cleavage was 0.03. With UACGUAGGUGGUUUUCCCCUGAUAGUGCUAAGGGAGCCUGGAAGUUUGGACUGGGCAGAGCUCAACACAGCGUGGCAAAGUGGCUGUGGCUAGACUGCCCCUCUGGAUGCCUCGUCACUCAGCGGGGCAUCUCUGAGAGAAAUGCC [G35A U100C U109G A124G] the self-cleavage was 1.2. With UACGUAGGUGGUUUUCCCCUGAUAGUGCUAAGGGCGCCUGGAAGUUUGGACUGGGCAGAGCUUAACACAGCGUGGCAAAGUGGCUGUGGCUAGACUGCCUCUCUGGAUUCCUCGUCACUCAGCAGGGCGUCUCUAAGAGAAAUGCC [G35C C63U A129G G135A] the self-cleavage was 0.24. With UACGUAGGUGGUUUUCCCCUGAUAGUGCUAAGGGAGCCUGGAGGUUUGGACUGGGCAGAGCUCAACACAGCGUGGCAAAGUGGCUGUGGCUAGGCUGCCUCUCUGGAUUCCUCAUCACUCAGCAGGGCAUCUCUGAGAGAAAUGCC [G35A A43G A94G G114A] the self-cleavage was 0.18. For UACGUAGGUGGUUUUCCCCUGAUAGUGCUAAGGGCGCCGGGAAGAUUGGACUGGGCAGAGCUCAACACAGCGUGGCAAAGUGGCUGUGGCUAGACUGCCUCUCUGGAUUCCUCGUCACUCAGCAGGGCAUCUCUGAGAGAGAUGCC [G35C U39G U45A A141G], the self-cleavage was 2.09. With UACGUAGGUGGUUUUCCCCUGAUAGUGCUAAGGGAGCCUGGAAGUUUGGACUGGGCAGAGCUCAACACAGCGUGGCAAAGUGGCUGUGGCUAGACUGCCCCUCAGGAUUCCUCGUCACUCAGCAGGGCAUCUCUGAGGGAAAUGCC [G35A U100C U104A A138G] the self-cleavage was 0.7.

From the RNAGym collection of RNA variant scans (doi:10.7554/elife.90254)
